Data reported in FireProtDB (doi:10.1074/jbc.m109.001289).
Where “and” joins values, the source holds several entries; their conditions need not be identical. Equal entries are not always repeated.

Conditions: Homo sapiens, pH 7.3, Thermal, sodium phosphate 25 mM, transition: 2, reversible: yes

Fibroblast growth factor 1 wild type (sequence not shown)
unfolding enthalpy (calorimetric) (CD): 64.9 kcal/mol and 67.7 kcal/mol and 67.6 kcal/mol | Tm (fluorescence): 39.8 °C | unfolding enthalpy (calorimetric) (fluorescence): 66.2 kcal/mol
